# Data: the supplement of paper PMC8728848
# The other results are listed elsewhere or left out.
# Columns and labels:
# Assay in all cases: glycan array binding signal (z-score within array); higher = stronger binding
# Conditions in all cases: glycan notation: IUPAC condensed, linker removed
# [1] = molecular target: Glc(a1-6)Glc(a1-6)Glc(a1-6)Glc
# Summary of the method: (§1)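 The Consortium for Functional Glycomics database supplied 3228 glycan arrays, of which those lacking an available protein sequence were dropped. The binding signal, a within-array Z-score, was averaged across arrays of the same protein sequence and across linkers. Negative scores can be read as non-binding.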
# Glc(b1-4)Glc = molecular target: Glc(b1-4)Glc
# Summary of the method: as §1
# Glc(b1-6)Glc = molecular target: Glc(b1-6)Glc
# Summary of the method: as §1
# GlcA(b1-3)Gal = molecular target: GlcA(b1-3)Gal
# Summary of the method: as §1
# GlcA(b1-3)GlcNAc = molecular target: GlcA(b1-3)GlcNAc
# Summary of the method: as §1
# GlcA(b1-6)Gal = molecular target: GlcA(b1-6)Gal
# Summary of the method: as §1
# [2] = molecular target: GlcA3S(b1-3)Gal(b1-4)GlcNAc(b1-2)Man
# Summary of the method: as §1
# [3] = molecular target: GlcA3S(b1-3)Gal(b1-4)GlcNAc(b1-3)Gal(b1-4)Glc
# Summary of the method: as §1
# [4] = molecular target: GlcNAc(a1-3)Gal(b1-4)GlcNAc
# Summary of the method: as §1
# [5] = molecular target: GlcNAc(a1-4)Gal(b1-3)GlcNAc
# Summary of the method: as §1
# [6] = molecular target: GlcNAc(a1-4)Gal(b1-4)GalNAc
# Summary of the method: as §1
# [7] = molecular target: GlcNAc(a1-4)Gal(b1-4)GlcNAc
# Summary of the method: as §1
# [8] = molecular target: GlcNAc(a1-4)Gal(b1-4)GlcNAc(b1-3)Gal(b1-4)Glc
# Summary of the method: as §1
# [9] = molecular target: GlcNAc(a1-4)Gal(b1-4)GlcNAc(b1-3)Gal(b1-4)GlcNAc
# Summary of the method: as §1
# [10] = molecular target: GlcNAc(a1-4)Gal(b1-4)GlcNAc(b1-3)Gal(b1-4)GlcNAc(b1-3)Gal(b1-4)GlcNAc
# Summary of the method: as §1
# [11] = molecular target: GlcNAc(a1-4)Gal(b1-4)GlcNAc(b1-3)Gal(b1-4)[Fuc(a1-3)]GlcNAc(b1-3)Gal(b1-4)[Fuc(a1-3)]GlcNAc
# Summary of the method: as §1
# [12] = molecular target: GlcNAc(a1-6)Gal(b1-4)GlcNAc
# Summary of the method: as §1
# [13] = molecular target: GlcNAc(b1-2)Gal(b1-3)GalNAc
# Summary of the method: as §1
# [14] = molecular target: GlcNAc(b1-2)Man(a1-3)[GlcNAc(b1-2)Man(a1-6)]Man(b1-4)GlcNAc(b1-4)GlcNAc
# Summary of the method: as §1
# [15] = molecular target: GlcNAc(b1-2)Man(a1-3)[GlcNAc(b1-2)Man(a1-6)]Man(b1-4)GlcNAc(b1-4)[Fuc(a1-6)]GlcNAc
# Summary of the method: as §1
# [16] = molecular target: GlcNAc(b1-2)Man(a1-3)[GlcNAc(b1-4)][GlcNAc(b1-2)Man(a1-6)]Man(b1-4)GlcNAc(b1-4)GlcNAc
# Summary of the method: as §1
# [17] = molecular target: GlcNAc(b1-2)Man(a1-3)[GlcNAc(b1-4)][GlcNAc(b1-2)Man(a1-6)]Man(b1-4)GlcNAc(b1-4)[Fuc(a1-6)]GlcNAc
# Summary of the method: as §1
# [18] = molecular target: GlcNAc(b1-2)[GlcNAc(b1-4)]Man(a1-3)[GlcNAc(b1-2)Man(a1-6)]Man(b1-4)GlcNAc(b1-4)GlcNAc
# Summary of the method: as §1
# [19] = molecular target: GlcNAc(b1-2)[GlcNAc(b1-4)]Man(a1-3)[GlcNAc(b1-4)][GlcNAc(b1-2)Man(a1-6)]Man(b1-4)GlcNAc(b1-4)GlcNAc
# Summary of the method: as §1
# [20] = molecular target: GlcNAc(b1-2)[GlcNAc(b1-4)]Man(a1-3)[GlcNAc(b1-4)][GlcNAc(b1-2)[GlcNAc(b1-6)]Man(a1-6)]Man(b1-4)GlcNAc(b1-4)GlcNAc
# Summary of the method: as §1
# [21] = molecular target: GlcNAc(b1-2)[GlcNAc(b1-4)]Man(a1-3)[GlcNAc(b1-4)][GlcNAc(b1-2)[GlcNAc(b1-6)]Man(a1-6)]Man(b1-4)GlcNAc(b1-4)[Fuc(a1-6)]GlcNAc
# Summary of the method: as §1
# [22] = molecular target: GlcNAc(b1-2)[GlcNAc(b1-6)]Man(a1-6)[GlcNAc(b1-2)Man(a1-3)]Man(b1-4)GlcNAc(b1-4)GlcNAc
# Summary of the method: as §1
# [23] = molecular target: GlcNAc(b1-2)[GlcNAc(b1-6)]Man(a1-6)[GlcNAc(b1-2)Man(a1-3)]Man(b1-4)GlcNAc(b1-4)[Fuc(a1-6)]GlcNAc
# Summary of the method: as §1
# [24] = molecular target: GlcNAc(b1-2)[GlcNAc(b1-6)]Man(a1-6)[GlcNAc(b1-2)Man(a1-3)][GlcNAc(b1-4)]Man(b1-4)GlcNAc(b1-4)GlcNAc
# Summary of the method: as §1
# [25] = molecular target: GlcNAc(b1-2)[GlcNAc(b1-6)]Man(a1-6)[GlcNAc(b1-4)][GlcNAc(b1-2)Man(a1-3)]Man(b1-4)GlcNAc(b1-4)GlcNAc
# Summary of the method: as §1
# GlcNAc(b1-3)Fuc = molecular target: GlcNAc(b1-3)Fuc
# Summary of the method: as §1
# GlcNAc(b1-3)Gal = molecular target: GlcNAc(b1-3)Gal
# Summary of the method: as §1
# [26] = molecular target: GlcNAc(b1-3)Gal(b1-3)GalNAc
# Summary of the method: as §1
# GlcNAc(b1-3)Gal(b1-4)Glc = molecular target: GlcNAc(b1-3)Gal(b1-4)Glc
# Summary of the method: as §1
# [27] = molecular target: GlcNAc(b1-3)Gal(b1-4)GlcNAc
# Summary of the method: as §1
# [28] = molecular target: GlcNAc(b1-3)Gal(b1-4)GlcNAc(b1-2)Man(a1-3)[GlcNAc(b1-3)Gal(b1-4)GlcNAc(b1-2)Man(a1-6)]Man(b1-4)GlcNAc(b1-4)GlcNAc
# Summary of the method: as §1
# [29] = molecular target: GlcNAc(b1-3)Gal(b1-4)GlcNAc(b1-2)Man(a1-3)[GlcNAc(b1-3)Gal(b1-4)GlcNAc(b1-2)Man(a1-6)]Man(b1-4)GlcNAc(b1-4)[Fuc(a1-6)]GlcNAc
# Summary of the method: as §1
binder,measurement,setting,value
rAAL-2 (Agrocybe aegerita) (protein) MTSNVITQDLPIPVASRGFADIVGFGLDGVVIGRNAVNLQPFLAVKNFAQNAGGWLTTKHVRLIADTTGTGKGDIVGFGNAGVYVSVNNGKNTFADPPKMVIANFGYDAGGWRVEKHLRYLADIRKIGRADIIGFGEKGVLVSRNNGGLNFGPATLVLKDFGYDAGGWRLDRHLRFLADVTGNGHLDIVGFGDKHVFISRNNGDGTFAPAKSVIDNFCIDAGGWKIGDHPRFVADLTGDGTADIIGCGKAGCWVALNNGGGVFGQVKLVINDFGTDKGWQAAKHPRFIADLTGNGRGDVVGFGNAGVYVALNNGDGTFQSAKLVLKDFGVQQGWTVSKHRRFVVDLTGDGCADIIGFGEKETLVSYNDGKGNFGPVKALTNDFSFSGGKWAPETTVCWMANLDSSRH,glycan array binding signal (z-score),[1],-0.241
same,glycan array binding signal (z-score),Glc(b1-4)Glc,-0.305
same,glycan array binding signal (z-score),Glc(b1-6)Glc,-0.302
same,glycan array binding signal (z-score),GlcA(b1-3)Gal,-0.159
same,glycan array binding signal (z-score),GlcA(b1-3)GlcNAc,-0.054
same,glycan array binding signal (z-score),GlcA(b1-6)Gal,-0.188
same,glycan array binding signal (z-score),[2],-0.11
same,glycan array binding signal (z-score),[3],-0.402
same,glycan array binding signal (z-score),[4],4.67
same,glycan array binding signal (z-score),[5],3.84
same,glycan array binding signal (z-score),[6],1.71
same,glycan array binding signal (z-score),[7],3.35
same,glycan array binding signal (z-score),[8],4.64
same,glycan array binding signal (z-score),[9],2.8
same,glycan array binding signal (z-score),[10],6.15
same,glycan array binding signal (z-score),[11],3.9
same,glycan array binding signal (z-score),[12],2.93
same,glycan array binding signal (z-score),[13],-0.431
same,glycan array binding signal (z-score),[14],0.102
same,glycan array binding signal (z-score),[15],-0.279
same,glycan array binding signal (z-score),[16],-0.244
same,glycan array binding signal (z-score),[17],-0.068
same,glycan array binding signal (z-score),[18],0.091
same,glycan array binding signal (z-score),[19],-0.29
same,glycan array binding signal (z-score),[20],-0.333
same,glycan array binding signal (z-score),[21],-0.198
same,glycan array binding signal (z-score),[22],0.345
same,glycan array binding signal (z-score),[23],-0.07
same,glycan array binding signal (z-score),[24],-0.251
same,glycan array binding signal (z-score),[25],-0.611
same,glycan array binding signal (z-score),GlcNAc(b1-3)Fuc,1.48
same,glycan array binding signal (z-score),GlcNAc(b1-3)Gal,2.17
same,glycan array binding signal (z-score),[26],2.02
same,glycan array binding signal (z-score),GlcNAc(b1-3)Gal(b1-4)Glc,2.55
same,glycan array binding signal (z-score),[27],4.11
same,glycan array binding signal (z-score),[28],3.65
same,glycan array binding signal (z-score),[29],3.77
